Measurements: the antibiotic and cytotoxicity screens of Wong et al. (2023)
The list shows a part of the results.

These molecules were tested on HSkMC (human skeletal muscle cells) (assay: cytotoxicity call (relative viability < 0.9)). Conditions: 10 µM.

| Structure (SMILES) | cytotoxicity call |
| --- | --- |
| O=C(Cc1ccncc1)NCC[C@H]1CC[C@@H](NC(=O)C2CCOCC2)[C@@H](CO)O1 | inactive |
| C[C@@H]1CN([C@@H](C)CO)C(=O)c2cc(NC(=O)c3ccccc3)ccc2O[C@@H](C)CCCCO[C@H]1CN(C)C(=O)CCC(F)(F)F | inactive |
| C#CC1(O)CCC2C3CCc4cc(OC)ccc4C3CCC21C (stereo not drawn) | inactive |
| C[C@H](CO)N1C[C@H](C)[C@@H](CN(C)Cc2ccc(Cl)c(Cl)c2)Oc2ccc(NC(=O)C3CCCCC3)cc2CC1=O | inactive |
| CN(C)CC(=O)N[C@@H]1CC[C@H](CCn2cc(CN(C)C)nn2)O[C@@H]1CO | inactive |
| CCC1(C)CC(=O)NC1=O (stereo not drawn) | inactive |
| Nc1ccccc1CO | inactive |
| [N-]=[N+]=N[C@]1(CO)O[C@@H](n2ccc(N)nc2=O)[C@H](O)[C@@H]1O | inactive |
| C[C@H](CO)N1C[C@H](C)[C@H](CN(C)S(=O)(=O)c2cccc(F)c2)Oc2ncc(Br)cc2C1=O | inactive |
| C[C@H](CO)N1C[C@H](C)[C@H](CN(C)S(=O)(=O)c2cn(C)cn2)OCCCC[C@H](C)Oc2ccc(NS(=O)(=O)c3ccc(F)cc3)cc2C1=O | inactive |
| C[C@H](CO)N1C[C@H](C)[C@H](CN(C)C(=O)Nc2ccccc2)OCCCC[C@H](C)Oc2ccc(NC(=O)c3ccccc3)cc2C1=O | inactive |
| CC(C)NC(=O)N(C)C[C@H]1Oc2ccc(NS(=O)(=O)c3cn(C)cn3)cc2CC(=O)N([C@@H](C)CO)C[C@H]1C | inactive |
| C[C@H]1CN([C@@H](C)CO)C(=O)Cc2cc(NS(=O)(=O)c3ccc(Cl)cc3)ccc2O[C@@H]1CN(C)Cc1ccc(C(=O)Nc2ccccc2N)cc1 | inactive |
